Over roughly 110,000 compounds, “z-score” has its median near -0.1; the highest 2% begin near 2. Some of the results follow.
The compounds below were run against Metabotropic glutamate receptor 8 (Rattus norvegicus) (UniProt P70579) (assay: rat mGluR8 modulators via GIRK flux, primary screen, cell-based, thallium flux, HTS (AID 488969)). Details: HEK293 rat mGluR8, GIRK (G protein-gated inwardly rectifying potassium channel) thallium flux, FluoZin2; at 10 µM; stronger effect = higher value; submaximal glutamate (EC20) added with thallium.
Chain of UniProt P70579 (P70579 whole entry, looked up): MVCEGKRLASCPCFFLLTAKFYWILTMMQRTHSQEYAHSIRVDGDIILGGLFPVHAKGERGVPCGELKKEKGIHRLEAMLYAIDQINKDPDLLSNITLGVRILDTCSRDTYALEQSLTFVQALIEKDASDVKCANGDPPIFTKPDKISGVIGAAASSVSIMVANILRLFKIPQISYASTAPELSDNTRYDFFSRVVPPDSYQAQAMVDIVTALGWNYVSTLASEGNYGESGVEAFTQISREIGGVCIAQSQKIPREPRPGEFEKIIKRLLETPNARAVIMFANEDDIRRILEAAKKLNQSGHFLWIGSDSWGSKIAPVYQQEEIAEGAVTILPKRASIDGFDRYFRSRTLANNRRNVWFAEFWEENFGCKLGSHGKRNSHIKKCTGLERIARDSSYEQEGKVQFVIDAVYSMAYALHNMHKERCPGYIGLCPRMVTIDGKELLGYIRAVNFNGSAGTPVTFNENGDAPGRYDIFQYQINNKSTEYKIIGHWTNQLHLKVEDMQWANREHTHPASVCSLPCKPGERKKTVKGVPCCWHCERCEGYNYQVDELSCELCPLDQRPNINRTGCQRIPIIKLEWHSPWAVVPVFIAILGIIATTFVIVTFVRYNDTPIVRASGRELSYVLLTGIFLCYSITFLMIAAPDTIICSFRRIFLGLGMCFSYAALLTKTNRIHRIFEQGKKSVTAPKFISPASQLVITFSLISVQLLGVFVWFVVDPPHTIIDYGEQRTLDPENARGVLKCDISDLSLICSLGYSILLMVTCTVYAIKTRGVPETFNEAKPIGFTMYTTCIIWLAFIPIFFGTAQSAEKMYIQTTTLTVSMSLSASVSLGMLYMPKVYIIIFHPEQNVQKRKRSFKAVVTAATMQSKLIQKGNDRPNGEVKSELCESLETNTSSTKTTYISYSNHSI

Row | SMILES | z-score
1 | CC1CCCC(C)N1NC(=S)Nc1ccc(OC(F)F)cc1 (stereo not drawn) | -0.0533
2 | Cc1ccn(CC(=O)N/N=C/c2cc([N+](=O)[O-])ccc2O)n1 | 1.59
3 | Cc1c(C(=O)NCC2COc3ccccc3O2)oc2ccc(S(=O)(=O)N3CC(C)CC(C)C3)cc12 (stereo not drawn) | -0.128
4 | COc1cccc(C2CC(c3ccccc3Cl)Nc3nc(N)nn32)c1 (stereo not drawn) | 0.0252
5 | CCOC(=O)/C(C(N)=NCCO)=C(/O)c1ccccc1 | -0.561
6 | COC(=O)c1ccc(CC(=O)c2nc3ccccc3s2)cc1 | 0.0549
7 | O=C(COC(=O)c1ccc(S(=O)(=O)NCc2ccco2)cc1)NC1CCCCC1 | -0.0764
8 | COc1cccc(NS(=O)(=O)c2nc3nc(C)cc(C)n3n2)c1 | -0.0439
9 | CCCSc1nc2c(cnn2-c2ccc(C)c(C)c2)c(=O)[nH]1 | -0.398
10 | Cc1ccc(C(=O)Nc2c(C#N)c(C)c(C)n2Cc2ccccc2)cc1 | -0.166
11 | COCc1nnc(NC(=O)CCc2ccccc2)s1 | -0.154
12 | Cc1c(N=Cc2c(O)n(Cc3ccco3)c(=O)c3ccccc23)c(=O)n(-c2ccccc2)n1C | -1.95
13 | COc1cccc(-c2cc(N)nn2C(=O)Nc2ccc(Cl)cc2)c1 | 0.894
14 | Cc1cccc(N(C(=O)c2sc(C)nc2C)C(C(=O)NCc2ccco2)c2ccccc2)c1 (stereo not drawn) | -1.18
15 | O=C(CCN1C(=O)C2CCCCC2C1=O)NNC(=O)c1cccc(Cl)c1 (stereo not drawn) | -0.214
16 | O=S(=O)(c1ccc2c(c1)N(Cc1ccc(Cl)cc1)C1CCCN21)N1CCOCC1 (stereo not drawn) | 0.105
17 | Cc1ccc2c(C)cc[n+](CCCS(=O)(=O)[O-])c2c1 | -0.475
18 | O=C1NCC(CN(c2ccccc2)c2ccccc2)O1 (stereo not drawn) | -0.57
19 | CCOC(=O)C1CCN(Cc2nc3ccccc3c(=O)n2-c2ccc(F)cc2)CC1 | -0.219
20 | N#Cc1c(NC(=O)Cn2cnc3ccccc3c2=O)oc(-c2ccccc2)c1-c1ccccc1 | -0.403
21 | COc1cc(/C=C(/NC(=O)c2ccccc2)C(=O)N2CCN(C)CC2)c([N+](=O)[O-])cc1OC | 0.00529
22 | Cc1ccccc1CSc1nnc(C)c(=O)[nH]1 | -1.64

Row | SMILES | z-score
23 | COc1ccc(Cn2nnnc2C(C(C)C)N2CCc3ccccc32)cc1 (stereo not drawn) | -0.681
24 | COC(=O)C1=C(C)N(Cc2ccco2)C(=O)C1 | -0.236
25 | O=C(Nc1ccc(N2CCN(C(=O)c3ccco3)CC2)c(Cl)c1)c1cc2ccccc2o1 | 0.12
26 | COc1ccc(NS(=O)(=O)c2ccc(NC(=O)Cc3cccs3)cc2)cc1 | -0.263
27 | Cc1ccc(C(C)C)c(OCCCN2C(=O)NC(C)(C)C2=O)c1 | -0.0616
28 | CNC(=O)c1cccnc1Nc1cccc(C(F)(F)F)c1 | -0.271
29 | COc1ccc(S(=O)(=O)Nc2ccc(C)cc2)cc1OC | -0.166
30 | CCOC(=O)c1cnc(-n2nc(C)cc2C)nc1NNc1nc(-c2ccccc2)cc(-c2ccccc2)n1 | 1.52
31 | O=C1CC(C(=O)NCc2ccccc2)N=C(N2CCCCC2)N1 (stereo not drawn) | -0.139
32 | c1ccc(CN2CCN(c3nc4ccccc4c4ccccc34)CC2)cc1 | -0.0842
33 | COc1ccccc1CNC(=O)C(CC(C)C)NS(=O)(=O)c1ccc2c(c1)oc(=O)n2C (stereo not drawn) | -0.127
34 | N/C(=N\OC(=O)CCCN1C(=O)c2ccccc2C1=O)c1ccc(Cl)cc1 | -0.264
35 | CCOP(=O)(OCC)c1nc(/C=C/c2ccccc2)oc1NCc1ccc(OC)cc1 | -0.161
36 | Nn1c(COc2ccccc2)nnc1SCc1cc(=O)[nH]c2ccccc12 | -0.0617
37 | COCC(C)NCc1cccc(C)c1 (stereo not drawn) | -0.316
38 | CC(NC(=O)c1ccc(C(C)(C)C)cc1)C(=O)O (stereo not drawn) | -0.0659
39 | CCSc1nc2sc3c(c2c(=O)[nH]1)CCCC3 | 0.575
40 | COC(=O)/C(=C\Nc1cccc(Cl)c1C)c1ncc(C(F)(F)F)cc1Cl | -0.0603
41 | COc1ccc(OCc2nc(N)nc(Nc3ccc(C)cc3)n2)cc1 | 0.32
42 | CCOc1ccc(C(Nc2ccc(C)cc2)P2(=O)OCC(C)(C)CO2)cc1 (stereo not drawn) | -0.774
43 | O=C(Nc1ccc(Cl)cc1)Nc1nnc(-c2ccncc2)s1 | 0.625
44 | O=C(N/N=C\c1cn(-c2ccccc2)nc1-c1ccccc1)c1ccc(Br)o1 | 0.129

Row | SMILES | z-score
45 | CCn1c(SCC(=O)Nc2cccc(NC(=O)c3cccs3)c2)nnc1-c1ccncc1 | -0.924
46 | COc1ccc(CC(=O)OCc2nnc(C3COc4ccccc4O3)o2)cc1OC (stereo not drawn) | -0.295
47 | O=C(NCc1ccccn1)C1CCC(=O)N1C1CCCC1 (stereo not drawn) | -0.148
48 | N/C(COc1ccc(F)cc1)=N\NC(=O)c1cccnc1Oc1ccccc1 | 0.152
49 | O=C(Cn1c(=O)oc2cc(S(=O)(=O)N3CCCC3)ccc21)N1CCN(c2ccccc2)CC1 | -0.227
50 | CCCn1c(SCC(=O)NCc2ccco2)nc2c1c(=O)n(C)c(=O)n2C | -0.274
51 | O=C(c1ccc(CN2CCOCC2)cc1)N1CCN(c2ccccc2)CC1 | 0.0496
52 | CCc1nc(SCc2nnc(-c3ccc(C)cc3)o2)c2c(C)c(C)sc2n1 | 2.26
53 | Cc1nn(C)c(C(=O)Nc2ccn(C34CC5CC(CC(C5)C3)C4)n2)c1[N+](=O)[O-] | -0.352
54 | Cc1nn(C)cc1/C=N/NC(=S)Nc1ccccc1 | 0.161
55 | O=C1CCc2nc3ccccc3c(=O)n2N1 | 0.554
56 | Cc1ccc(S(=O)(=O)N2CCCCC2)cc1NC(=O)COC(=O)c1cc[n+]([O-])cc1 | -0.223
57 | C=CCc1cccc(/C=N/NC(=O)CCC(=O)Nc2ccc(F)cc2)c1O | -0.177
58 | Cc1nn(-c2ccccn2)c2c1-c1nc(N)ncc1CC2 | 0.0268
59 | O=C1C(Cl)=C(NCC2CCCO2)C(=O)N1c1ccccc1 (stereo not drawn) | 0.302
60 | COc1ccc(-n2c(C)cc(-c3csc(NC(=O)c4ccc(S(=O)(=O)N(C)C)cc4)n3)c2C)cc1 | -0.439
61 | O=C(Nc1nnc(C2CC2)s1)C1Cc2ccccc2CN1S(=O)(=O)c1ccccc1F (stereo not drawn) | -0.696
62 | CC1(C)Cc2cccc(OCC(=O)Nc3cccnc3Cl)c2O1 | -1.2
63 | COC1CCCCC1NS(=O)(=O)c1ccccc1 (stereo not drawn) | 0.306
64 | O=C1C2CCCN2C(c2cccc(Br)c2)N1c1ccc(F)cc1 (stereo not drawn) | -0.401
65 | CCCOC(=O)c1ccc(Oc2c(-c3ccc(O)cc3O)n[nH]c2C)cc1 | -0.101
66 | O=C1OC(c2ccc(Br)cc2)=N/C1=C\N1CCCCC1 | -0.66

Row | SMILES | z-score
67 | CCc1cc(/C(Cc2csc(C)n2)=N/O)c(O)cc1O | 0.129
68 | COc1ccccc1Nc1nc(-c2sc(NC(=O)c3cccc(Cl)c3)nc2C)cs1 | -0.0406
69 | CSc1nc2[nH]ncc2c(=O)n1-c1ccccc1 | -1.58
70 | COc1ccc(S(=O)(=O)N2CCN(C)CC2)cc1Br | 0.0329
71 | CCNC(=O)C1CC(=O)OC12CCCCC2 (stereo not drawn) | 0.317
72 | Oc1cccc(-c2nc3ccc4ccccc4c3c3c2CCC3)c1 | -0.105
73 | CCn1cc(CN(C)C(=O)CSc2nc(-c3ccco3)cc(C(F)(F)F)n2)c(C)n1 | -0.163
74 | Cc1sc(NC(=O)Cc2ccc3c(c2)OCO3)nc1-c1ccc2c(c1)CCN2C(=O)c1ccccc1F | 0.615
75 | CCCCN=c1scc(-c2ccc3c(c2)NC(=O)CO3)n1N=C1CCCC1 | 0.495
76 | Cc1cc(=O)[nH]c(-c2ccccc2O)n1 | 0.0443
77 | Cc1sc(NC(=O)c2ccco2)c(C(Nc2ccccn2)c2ccccc2)c1C (stereo not drawn) | -0.177
78 | N#CCCCSc1nnc(Cc2ccc3c(c2)OCO3)o1 | 0.714
79 | Cc1nnc(Sc2c(N)n(C)c(=O)n(C)c2=O)s1 | 0.31
80 | CN1C(=O)c2cccc3c(Cl)ccc(c23)C1=O | -0.106
81 | CCN(CC)S(=O)(=O)N1CCC(C(=O)NCC2COc3ccccc3O2)CC1 (stereo not drawn) | -0.198
82 | CCOc1ccc(OCCSc2nnnn2C2CCCCC2)cc1 | 0.543
83 | CCOC(=O)c1c(NC(=O)COC(=O)c2cc(OC)c(OC)cc2[N+](=O)[O-])sc(C)c1C | -0.0967
84 | COCCNC(=O)CSc1nnc(CCCN2C(=O)c3cccc4cccc(c34)C2=O)n1-c1ccccc1 | -0.209
85 | O=C(NC1CCCCC1)N1CCN(CCc2ccccc2)CC1 | 0.524
86 | CC1CCc2c(nc3ncnn3c2Nc2ccc(OC(F)(F)F)cc2)C1 (stereo not drawn) | -0.73
87 | Cc1ccc(Cl)cc1Nc1nc(-c2sc(NC(=O)c3ccco3)nc2C)cs1 | 0.0211
88 | CCc1nnc(NC(=O)CCC(=O)O)s1 | -0.0075

Row | SMILES | z-score
89 | O=C(CCSc1ccccc1)NCCSCc1ccco1 | 0.657
90 | Cn1c(=O)oc2cc(S(=O)(=O)NCCCN3CCCC3=O)ccc21 | -0.124
91 | CCOC(=O)C1CN(S(=O)(=O)c2ccc(C)cc2)c2cc(S(=O)(=O)CC)ccc2O1 (stereo not drawn) | -0.375
92 | Cc1c(-c2ccc(Br)cc2)nc2ccccn12 | -0.361
93 | C=CCn1c(SCc2ccc([N+](=O)[O-])cc2)nnc1C(C)NC(=O)c1ccccc1 (stereo not drawn) | -0.0826
94 | COc1ccc(-c2n[nH]c(C(F)(F)F)c2-c2cc3ccccc3o2)c(O)c1 | -0.366
95 | COc1ccccc1NC(=S)NCCc1c[nH]c2ccccc12 | 0.083
96 | Cc1cc2c(cc1C)N(C(=O)CN1C(=O)c3ccccc3C1=O)C(C)(C)c1ssc(=S)c1-2 | -0.00698
97 | CCOC(=O)c1c(NC(=O)CSc2nnc(Cc3ccccc3)o2)sc(C(C)=O)c1C | -0.218
98 | CCOC(=O)c1nn(-c2ccc(C)cc2)cc1O | -0.269
99 | CCc1c(C)sc(NC(=O)c2cc(C3CC3)on2)c1C#N | 1.96
100 | CCc1sc(C(=O)NC2CCN(C)CC2)cc1Br | 1.02
101 | Cc1ccc(S(=O)(=O)Nc2ccc(C(OC(=O)c3ccccc3[N+](=O)[O-])(C(F)(F)F)C(F)(F)F)cc2)cc1 | 0.353
102 | CC(C)N1CC23C=CC(O2)C(C(=O)OCc2ccccc2)C3C1=O (stereo not drawn) | 0.588
103 | C=CCn1c(=O)c2ccccc2n2c(SCc3cc(=O)n4ccsc4n3)nnc12 | 1
104 | CN1CCN(c2ccccc2NC(=O)COc2ccc(Br)cc2)CC1 | -0.396
105 | CCC(=O)N1CCc2cc(Br)cc(S(=O)(=O)CCC(=O)NCCOC)c21 | -0.0862
106 | C[C@@H](NC(=O)c1coc(=O)c(Br)c1)c1ccccc1 | -0.237
107 | COc1ccc(CCNC(=O)c2nc3ncccn3n2)cc1OC | 0.169
108 | COc1ccc(N2CC(C(=O)Nc3ccc(S(=O)(=O)Nc4nc(C)cc(C)n4)cc3)CC2=O)cc1 (stereo not drawn) | -0.193

Reference: PubChem BioAssay AID488969 (Vanderbilt High Throughput Screening Facility, 2010)
